Measured values from paper PMC4336329 (PLoS ONE, 2015).
The whole screen tested about 310,000 compounds, of which about 14,000 (4.5%) showed an effect of 50% or more. Effects have a minus sign here. The list shows a part of the results.

biological target: human ether-à-go-go-related gene (hERG) potassium channel (human, UniProt Q12809); test: primary screen, population patch clamp on CHO cells stably expressing hERG
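Note: peak tail current of the secondary pulse compared with the same well before compound.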

human ether-à-go-go-related gene (hERG) potassium channel, sequence (Q12809 whole entry, looked up): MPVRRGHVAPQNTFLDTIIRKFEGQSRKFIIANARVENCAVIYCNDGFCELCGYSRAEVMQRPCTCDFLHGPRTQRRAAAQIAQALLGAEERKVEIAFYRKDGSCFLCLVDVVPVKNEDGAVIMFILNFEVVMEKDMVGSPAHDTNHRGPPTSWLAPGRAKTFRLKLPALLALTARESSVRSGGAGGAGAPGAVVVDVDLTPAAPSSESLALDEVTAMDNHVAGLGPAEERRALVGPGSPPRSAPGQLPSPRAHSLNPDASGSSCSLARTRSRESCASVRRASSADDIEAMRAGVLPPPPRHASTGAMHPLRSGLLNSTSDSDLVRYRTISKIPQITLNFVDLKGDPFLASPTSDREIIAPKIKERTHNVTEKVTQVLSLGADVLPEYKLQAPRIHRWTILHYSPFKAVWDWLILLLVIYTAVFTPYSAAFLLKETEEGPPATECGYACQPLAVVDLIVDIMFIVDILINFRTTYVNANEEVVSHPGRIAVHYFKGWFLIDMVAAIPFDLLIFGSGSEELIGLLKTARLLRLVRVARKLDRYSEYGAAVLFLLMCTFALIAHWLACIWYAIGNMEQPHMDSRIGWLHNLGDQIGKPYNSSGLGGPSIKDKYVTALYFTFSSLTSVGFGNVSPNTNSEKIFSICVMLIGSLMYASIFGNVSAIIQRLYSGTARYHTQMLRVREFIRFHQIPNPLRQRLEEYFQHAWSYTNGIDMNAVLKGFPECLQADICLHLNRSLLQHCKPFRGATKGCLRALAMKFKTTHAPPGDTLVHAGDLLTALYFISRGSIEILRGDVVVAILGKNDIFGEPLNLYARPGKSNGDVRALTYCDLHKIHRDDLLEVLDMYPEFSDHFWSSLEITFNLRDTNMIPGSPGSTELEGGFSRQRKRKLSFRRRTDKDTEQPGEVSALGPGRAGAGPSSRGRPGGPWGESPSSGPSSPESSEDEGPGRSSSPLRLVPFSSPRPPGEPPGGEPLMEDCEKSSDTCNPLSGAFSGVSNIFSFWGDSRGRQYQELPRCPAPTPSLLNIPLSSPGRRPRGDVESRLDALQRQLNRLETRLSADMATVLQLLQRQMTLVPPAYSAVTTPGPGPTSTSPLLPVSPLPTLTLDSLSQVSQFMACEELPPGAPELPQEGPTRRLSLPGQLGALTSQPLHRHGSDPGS

| SMILES | hERG current change (%, negative = inhibition) at 10uM [%] |
| --- | --- |
| Cc1ccc(N2CCN(C(=O)c3nn(C)c4c3CS(=O)(=O)c3ccccc3-4)CC2)c(C)c1 | -3 |
| CCOC(=O)C(C)Sc1nc(C2CC2)cc(C(F)(F)F)c1C#N (stereo not shown) | 5.04 |
| COc1ccc(C(=O)OC(C(=O)c2ccc(C)cc2)c2ccccc2)cc1 (stereo not shown) | -0.636 |
| CCN(CC)CCCNC(=O)c1ccc(CS(=O)(=O)c2ccccc2OC)o1 | 16.3 |
| CCOC(=O)c1ccc(NC(=O)c2nc[nH]c2C(=O)N[C@@H](Cc2ccccc2)C(=O)OC(C)(C)C)cc1 | 0.506 |
| CN(C(=S)NC(=O)C1(C)CC1(Cl)Cl)c1ccccc1 (stereo not shown) | 16.7 |
| O=C(Nc1ccc(Nc2ccccc2)cc1)c1cc([N+](=O)[O-])ccc1Cl | 11.2 |
| Cc1cc(NS(=O)(=O)c2ccc(NS(=O)(=O)c3cc(C)c(Cl)cc3Cl)cc2)no1 | 9.82 |
| COc1cc(/C=C/C(=O)c2ccc(NS(=O)(=O)c3ccc(C)cc3)cc2)cc(OC)c1O | -0.984 |
| Cc1ccc2c(c1)COc1c3ccc(C(=O)NC(C)C)cc3nn1-2 | 6.46 |
| COc1ccccc1NC(=O)N(CCCN1CCOCC1)Cc1cc2cc3c(cc2[nH]c1=O)OCO3 | -11.4 |
| Cc1nn(C)c(C)c1S(=O)(=O)NCCc1ccc(Cl)cc1 | -3.38 |
| O=C(O)C1C2C=CC3(CN(C/C=C/c4ccccc4)C(=O)C13)O2 (stereo not shown) | 12.2 |
| Cc1ccc(-n2c(=O)c(C#N)cc3c(=O)n4ccccc4nc32)cc1C | -2.4 |
| CC/C(=N/N=C(/CC)c1ccc(O)cc1)c1ccc(O)cc1 | -2.21 |
| CC(=O)N1CCOc2ccc(S(=O)(=O)N3CCC(C(=O)NCc4ccc(F)cc4)CC3)cc21 | 4.09 |
| COc1ccc(NC(=S)Nn2cnnc2)cc1OC | 30.3 |
| CC(Sc1ccc(S(=O)(=O)N2CCOCC2)cn1)C(=O)Nc1ccc(Cl)cc1Cl (stereo not shown) | -56.1 |
| Cc1onc(-c2ccccc2)c1C(=O)Nc1ccnn1C1CCCCC1 | -12.7 |
| CC(=O)Nc1c(C(=O)c2ccc(F)cc2)oc2ccccc12 | 1.61 |
| CCCCOCCCNC(=O)N[C@H](C(=O)OC)C(C)C | 10.7 |
| CCc1ccccc1N=C1SCC(=O)N1C | 2.46 |
| CC1CCN(S(=O)(=O)c2ccc3ccccc3c2)CC1 | -21.9 |
| Cc1nc(SCC(=O)NC2CCCCC2C)c(C#N)c(C)c1C (stereo not shown) | -7.03 |
| O=C1NCCC/C1=N/Nc1cc(F)ccc1F | -9.56 |
| CCN(CC)CCN(Cc1cc2cc3c(cc2[nH]c1=O)OCO3)C(=S)NCC(C)C | -55.1 |
| CCOc1ccc(N(CC(=O)NC2CCCCC2)C(=O)CCC(=O)Nc2nc(C)cs2)cc1 | -50.6 |
| Cc1ccc(S(=O)(=O)N2CCN(S(=O)(=O)N3CCCCC3)CC2)cc1 | 11.7 |

| SMILES | hERG current change (%, negative = inhibition) at 10uM [%] |
| --- | --- |
| CCC1CCCCN1C(=S)NC(=O)c1cc(S(=O)(=O)N2CCOCC2)ccc1C (stereo not shown) | 2.98 |
| CCOc1ccccc1NC(=O)CCn1c(=O)oc2ccccc21 | -12.9 |
| COc1ccc(NC(=O)c2ccc(-c3ccc([N+](=O)[O-])cc3)o2)cc1 | -33.1 |
| CCNC(=O)NC(=O)COc1ccccc1C#N | 16.4 |
| COc1ccc(CCNC(=O)c2cc(-c3ccccc3O)n[nH]2)cc1OC | 0.414 |
| N#CC1(C#N)COC23CCCCC2C1(C#N)C(=N)O3 (stereo not shown) | -0.33 |
| c1ccc(SCCc2ccncc2)cc1 | 7.49 |
| CS(=O)(=O)NCCSCc1ccc(Cl)cc1 | -6.98 |
| CCC(C)[C@H]1CNC(=S)N1CCC12CC3CC(CC(C3)C1)C2 (stereo partly shown) | 4.73 |
| COC(=O)CCCC(=O)NC1CCCN(C2Cc3ccccc3C2)C1 (stereo not shown) | -10.6 |
| Fc1ccc(-c2nnc(SCc3ncc(-c4ccccc4)o3)n2CC2CCCO2)cc1 (stereo not shown) | -35.3 |
| Cc1ccc(OCC(=O)N/N=C/c2ccncc2)cc1 | -17.4 |
| O=C(NC(=O)c1cc(OCC(F)(F)F)ccc1OCC(F)(F)F)Nc1ccccc1 | 7.54 |
| CNC(=O)c1c(NC(=O)c2ccc(N3C(=O)CCC3=O)cc2)sc2c1CCCC2 | -13.3 |
| CC1Cc2ccccc2N1S(=O)(=O)c1cccc(C(=O)NCc2ccccn2)c1 (stereo not shown) | -67.6 |
| CCN(CC(=O)Nc1cc(Cl)ccc1C)C(=O)CCc1nc2ccccc2c(=O)[nH]1 | -67.3 |
| CCc1nonc1NC(=O)c1oc2cc(Br)ccc2c1C | 20.4 |
| COc1ccc(S(=O)(=O)N2CCN(C(=O)c3ccc4ccccc4n3)CC2)cc1 | -21 |
| CCN(CC)C(=O)Cn1cc(C(=O)C(=O)N2CCc3ccccc32)c2ccccc21 | 24.3 |
| COc1ccc(-c2[nH]ncc2CN(C)CCCN2CCOCC2)cc1F | -2.52 |
| O=S(=O)(c1ccc2ccccc2c1)N1CCN(C(=S)Nc2ccc(F)c(Cl)c2)CC1 | -5.04 |
| O=C(Nc1nc(-c2cccs2)c(-c2cccs2)s1)C1(c2ccccc2)CC1 | 4.96 |
| N/C(=N\OC(=O)COc1ccccc1)c1cccnc1 | -3.92 |
| O=C(Nc1cccc(C(F)(F)F)c1)C1CCN(S(=O)(=O)c2ccc(N3CCCC3=O)cc2)CC1 | -13.5 |
| CC1(C)NC(=O)N(CCCOc2ccc(Br)cc2Cl)C1=O | -49.5 |
| COc1cc(C=O)ccc1OCCOc1ccccc1[N+](=O)[O-] | -6.53 |
| COc1ccc(C(=O)N/C(=C\c2cccs2)C(=O)N2CCN(C)CC2)cc1OC | -56.4 |
